{"source": "paper PMC12136788", "binders": {"B1": {"name": "chr5:33461064:33461065:+_ENSG00000113407_ENST00000502553|hu_mus|motif|central (ssRNA)", "RNA": "GGGAGUUCUACAGUCCGACGAUCUGUGAGCCCGGUGAGAGCCCCCGAGAGCUCAUUCCUAUGCAGCACACCAAAGUCAGCGGGCCGCAGGGGCAGCUCUCGCCAGGACCGUGGCCGGUGAUCGAACAUCAGGCAGUGUCCCGGCAACAGAGGAUUGAGCAUCA"}, "B2": {"name": "chr7:112757510:112757511:-_ENSG00000214194_ENST00000397764|hu_mus|motif|central (ssRNA)", "RNA": "GGGAGUUCUACAGUCCGACGAUCCUUUCUUGCGUAUAUCCCCAAGCAAGCACAGAUGCCGGUAAUGCUGAGAACCACACCGGAUAAGAGUGCAAUCGCGUCUCCAGCUUCCACUGCUUCAACAACAGGCAGGAUCAAAAGCAGCAACAGAGGAUUGAGCAUCA"}, "B3": {"name": "112958320_112958440_639_3pUTR_ENSMUSG00000030879_ENSMUST00000124482|mouse|control|control (ssRNA)", "RNA": "GGGAGUUCUACAGUCCGACGAUCAAGACCCACGAACACGGGCACCACACCUAUGCACCACUCUCCAGCUCCAGUUAAGUCUUUGGUGUUUGAACUGUACAGGAGCUGUGGAGGCUUGCGUCCUGGUUAUGGUGCAGGUCCUGCCAACAGAGGAUUGAGCAUCA"}, "B4": {"name": "83500210_83500330_104_ncRNA_ENSMUSG00000027091_ENSMUST00000134789|mouse|control|control (ssRNA)", "RNA": "GGGAGUUCUACAGUCCGACGAUCAGCACAAAUCCAGGAGGAAGUGCAUGGCGAUACAUGCAGUUGUCCCCACCUCCAGGACACACCCAAAACCAGCCAUACUUGUUAUUUUCAAUAGCUUCAAGAAAAUGUCUGCACACCUAUCAACAGAGGAUUGAGCAUCA"}, "B5": {"name": "chr1:243289802:243289803:-_ENSG00000143702_ENST00000366542|hu_hu|FALSE|FALSE (ssRNA)", "RNA": "GGGAGUUCUACAGUCCGACGAUCAAGAGAAAGUCAUUCUUGUACUGUAACAUCUUCCUCUUCCCCAUCGGGGUUGAAUCUAUUGAAAUGUAUACUGAAAUCAGCCUCAGAUUCAGCAUUCUCAAAUUCAGCUGCGGCUGAAACCAACAGAGGAUUGAGCAUCA"}, "B6": {"name": "chr13:41657021:41657022:+_ENSG00000120688_ENST00000379487|hu_hu|FALSE|FALSE (ssRNA)", "RNA": "GGGAGUUCUACAGUCCGACGAUCGGUGUAUAAGUCUCCAUUCUGUCCUAAAAGCAUGUACAAAAAGCUCUCCUGCAACUAUUGAUCAUCACCUCGUUGCCUUAAAUUUCUAGAUUUUCCAUUUUCAGUUCUUCUCUUUUUGAACAACAGAGGAUUGAGCAUCA"}, "B7": {"name": "chr2:48026839:48026840:+_ENSG00000116062_ENST00000540021|hu_hu|hu_hu_hu_mus_False|28_68 (ssRNA)", "RNA": "GGGAGUUCUACAGUCCGACGAUCAUAGUGAGCCACUAGCGUCCUAAAUCUGGAACAGUGGCGGUCAUCUGAAAACUGGCCGAUGAAAAACUUGCCCAGUGAAGUGUCAACAAAGCAAACACCAUACACACGAGUGUGACCAGACAACAGAGGAUUGAGCAUCA"}, "B8": {"name": "chr15:102110757:102110758:+_ENSMUSG00000045665_ENSMUST00000051341|mus_mus|FALSE|FALSE (ssRNA)", "RNA": "GGGAGUUCUACAGUCCGACGAUCGUAGGGAGCUUGGAGCCAGUCCGCUGCCAGGGCCAGAAAGUAGACUUGAUAGAAGUCUAGUUGAAACUGAAGGAAGGAGGGGUUGCUGCAAGCUCUUCCAGGGGGCCUGGCUCUGCAUCUCAACAGAGGAUUGAGCAUCA"}, "B9": {"name": "chr20:61576232:61576233:+_ENSG00000101193_ENST00000266069|hu_mus|FALSE|FALSE (ssRNA)", "RNA": "GGGAGUUCUACAGUCCGACGAUCCAGUGCUGGGUCCAUGCACAGGCUCUACUUGGGCUCCUCAAUCACACCUUUGCUGAGGUCUGUCAUUUUGGGAUAUUUUACUUUCUUCUGGUCUAGCUCAUUCUGAGCCCAAAGUAGCAGCAACAGAGGAUUGAGCAUCA"}, "B10": {"name": "chr8:67243003:67243004:-_ENSMUSG00000031605_ENSMUST00000034017|mus_hu|FALSE|FALSE (ssRNA)", "RNA": "GGGAGUUCUACAGUCCGACGAUCGUCACUUGAGAUUAAGCUGCACACUUGUUCGAUGCCAAGAUUGAGAAAUUCUUCACUAAGUACAACAUCUGCAAAAUGUUGCUCUGCAUAGGUGUUGGCCUUGUUCAGAAGGUCGGUACACAACAGAGGAUUGAGCAUCA"}, "B11": {"name": "chr4:148551591:148551592:-_ENSMUSG00000063077_ENSMUST00000060537|mus_hu|mus_mus_mus_hu_False|78_108 (ssRNA)", "RNA": "GGGAGUUCUACAGUCCGACGAUCACCUUACAAAAUUAAAUAUCCCUGUAAAUUAGACAAGAAGCAGCAGGCAACAAAGUCUUUGCUUUGGAAUAUGUGCCAGGAAAAGUCAUCUUGUUUUUAGAUCUCAAGAGACAGUUCACACAACAGAGGAUUGAGCAUCA"}, "B12": {"name": "chr5:52541547:52541548:-_ENSMUSG00000029169_ENSMUST00000031061|mus_mus|FALSE|FALSE (ssRNA)", "RNA": "GGGAGUUCUACAGUCCGACGAUCUAUGGAGACAGAAGAUUGUGUCUACAGAAGCACAAGUUGUAACAUUUCACAACUUCUAAAAGGAAUGUCAACAAUUACAACGAUCAUGCAUACCAUGGUCGAUAAUCACAUUUUAGAAGCCAACAGAGGAUUGAGCAUCA"}, "B13": {"name": "chrX:148277548:148277549:+_ENSMUSG00000025261_ENSMUST00000112622|mus_hu|motif|central (ssRNA)", "RNA": "GGGAGUUCUACAGUCCGACGAUCGAGGACUGCCAGCACCACUUGCAUAUCAGAGGAAGCCAAUAAAGUUGUCAAAUGCUCGGUGGAACUGUACAGAUGCCGGGAAAAGCUGUACUCAAUGAGCAAGGCUGUGAAGUUCAACACCAACAGAGGAUUGAGCAUCA"}, "B14": {"name": "chr8:27252840:27252841:+_ENSMUSG00000013878_ENSMUST00000014022|mus_hu|FALSE|FALSE (ssRNA)", "RNA": "GGGAGUUCUACAGUCCGACGAUCAGCAACGCCAGCUGAAGUGAGUAAGAUCUCCCAGUACCAUGUGGUACUGAGUCUUCUCAGAUACAUUCACUUGUUUGGCUCAAGACAUGAAUCUGAGCUGUGUGCUGCCAUCCUGAGACACAACAGAGGAUUGAGCAUCA"}}, "note": "The list shows a part of the results."}
{"molecular_target": "T1, UNK ZnF1-3 (human, UniProt Q9C0B0 31-174)", "T1 sequence": "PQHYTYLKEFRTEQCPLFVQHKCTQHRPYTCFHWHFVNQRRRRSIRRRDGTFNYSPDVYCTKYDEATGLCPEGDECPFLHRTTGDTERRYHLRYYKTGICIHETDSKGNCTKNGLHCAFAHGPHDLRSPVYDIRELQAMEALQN", "test": "nsRBNS (natural sequence RNA bind-n-seq); RBNS binding buffer (assumed for nsRBNS): 25 mM Tris pH 7.5, 150 mM KCl, 3 mM MgCl2, 0.01% Triton X-100, 500 ug/ml BSA, 20 U/ml SUPERase-In, 4 C; UNK is unkempt and MSI1 is Musashi-1; names of the RNAs are library labels; protein concentration not given here; high values mean tight binding", "units": {"binding signal": "enrichment R"}}
{"binder": "B1", "binding signal": 1.16}
{"binder": "B2", "binding signal": 0.895}
{"binder": "B3", "binding signal": 0.612}
{"binder": "B4", "binding signal": 1.84}
{"binder": "B5", "binding signal": 0.519}
{"binder": "B6", "binding signal": 1.1}
{"binder": "B7", "binding signal": 1.41}
{"binder": "B8", "binding signal": 0.621}
{"binder": "B9", "binding signal": 0.641}
{"binder": "B10", "binding signal": 0.728}
{"binder": "B11", "binding signal": 1.38}
{"binder": "B12", "binding signal": 1.14}
{"binder": "B13", "binding signal": 1.69}
{"binder": "B14", "binding signal": 0.739}
